Experimental data as given in PubChem BioAssay.
This list was built around the results that the source calls inconclusive (neither active nor inactive); the mix of calls is not that of the screen. The source made the active and inactive calls.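 Rule for the calls, unless noted: active = thallium flux rate significantly above the same plate's solvent-only control wells, beyond their mean plus 3 SD; inconclusive = the two replicate wells gave conflicting results; inactive = the rest.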

Tests used:
[1] = compound effects on native HEK Tl+ uptake – HEK cells, counterscreen 1, counter-screen for KCC2 modulator project, confirmation (AID 1716); details: HEK293 parental cells, thallium flux FluoZin2, ouabain; at 10 µM; baseline-ratio fluorescence slope, 10–20 s after thallium
[2] = biological target: Solute carrier family 12 member 5 (Homo sapiens) (UniProt Q9H2X9); assay: modulation of KCC2 thallium flux in HEK cells – cell-based, ouabain, retest, confirmation (AID 1717;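 active = thallium flux slope beyond 3 SD from same-plate DMSO control mean in most replicates, usually higher, sometimes lower; inconclusive = repeat tests gave conflicting results; inactive = no significant difference from controls in most replicates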;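 note: slope of initial-normalized fluorescence between seconds 10 and 20 after thallium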); details: HEK293-KCC2, thallium flux FluoZin2 fluorescence, at 10 µM, bidirectional: low = inhibitor, high = activator
UniProt Q9H2X9, sequence (Q9H2X9 whole entry, looked up): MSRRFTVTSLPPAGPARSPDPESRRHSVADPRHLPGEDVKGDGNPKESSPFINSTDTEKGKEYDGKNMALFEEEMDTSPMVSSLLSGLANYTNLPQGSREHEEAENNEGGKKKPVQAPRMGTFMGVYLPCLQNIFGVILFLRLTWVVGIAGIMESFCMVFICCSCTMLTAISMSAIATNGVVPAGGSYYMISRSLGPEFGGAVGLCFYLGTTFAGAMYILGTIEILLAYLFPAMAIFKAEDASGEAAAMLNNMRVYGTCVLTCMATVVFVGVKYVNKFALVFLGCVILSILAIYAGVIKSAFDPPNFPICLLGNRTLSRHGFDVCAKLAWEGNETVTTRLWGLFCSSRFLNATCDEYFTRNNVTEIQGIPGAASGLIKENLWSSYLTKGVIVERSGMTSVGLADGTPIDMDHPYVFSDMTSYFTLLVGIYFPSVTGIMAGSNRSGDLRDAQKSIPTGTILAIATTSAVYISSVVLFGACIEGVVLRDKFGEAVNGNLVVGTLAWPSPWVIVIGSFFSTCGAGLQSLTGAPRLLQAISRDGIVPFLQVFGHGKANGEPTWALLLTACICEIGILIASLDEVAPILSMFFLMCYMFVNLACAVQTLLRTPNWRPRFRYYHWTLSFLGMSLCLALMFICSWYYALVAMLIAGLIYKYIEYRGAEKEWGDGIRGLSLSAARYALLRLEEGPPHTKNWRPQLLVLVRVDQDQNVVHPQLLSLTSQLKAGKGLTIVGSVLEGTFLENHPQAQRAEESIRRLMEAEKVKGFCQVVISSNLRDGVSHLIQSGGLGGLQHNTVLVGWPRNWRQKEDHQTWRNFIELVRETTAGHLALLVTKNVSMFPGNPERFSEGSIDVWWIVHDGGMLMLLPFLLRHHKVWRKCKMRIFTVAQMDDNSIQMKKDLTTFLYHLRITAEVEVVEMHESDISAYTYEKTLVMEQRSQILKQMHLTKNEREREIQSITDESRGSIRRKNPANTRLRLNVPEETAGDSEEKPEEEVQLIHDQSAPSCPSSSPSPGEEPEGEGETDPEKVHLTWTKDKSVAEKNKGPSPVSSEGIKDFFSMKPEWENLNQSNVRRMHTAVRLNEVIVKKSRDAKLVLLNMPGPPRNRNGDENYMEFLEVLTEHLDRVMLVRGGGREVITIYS

[3] = native HEK Tl+ uptake effects, second counter-screen – HEK cells, counterscreen 2, counter-screen for KCC2 modulator project, confirmation (AID 1718;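 active = thallium flux slope above the same plate's solvent-control mean plus 3 SD in both duplicate wells; inconclusive = duplicate wells that disagreed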;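 note: run without ouabain in cells lacking the KCC2 cotransporter; slope of fluorescence scaled to its starting value between 10 and 20 s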); details: HEK293 parental, thallium flux FluoZin-2 fluorescence slope; at 10 µM
Summary of the method: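 System: Parental HEK cells | Also added: Thallium sulfate stimulus buffer | Compound dosing: Single 10 µM final compound dose, 0.1% DMSO | Schedule: Overnight cell culture at 37 °C, 48 min dye loading, compound before thallium | Signal: FluoZin-2 fluorescence kinetics | Repeats: Replicate wells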

Structure (SMILES)	thallium flux rate (normalised fluorescence) [1]	raw Tl+ flux slope (below DMSO = inhibition, above = activation) [2]	thallium flux slope [3]
CCc1ccc(OCCNC(=O)c2cc(SC)ccc2Cl)cc1	inactive: 0.00707	inconclusive: 0.0182	inactive: 0.0111
O=C(CSc1nnnn1-c1ccccc1)CSc1nnnn1-c1ccccc1	inconclusive: 0.00626		inactive: 0.00979
Cc1ccc(C(=O)Nc2ncc(Cc3ccc(F)cc3)s2)o1	inconclusive: 0.00835		inconclusive: 0.0107
CC[C@@H](C)[C@@H](C(=O)N1CCN(C(=O)OC(C)(C)C)CC1)n1cc(CCC(=O)O)nn1	active: 0.00923		inactive: 0.0111
O=C(NCc1ccco1)c1nc2c(nnn2Cc2ccccc2Cl)c(=O)[nH]1	inconclusive: 0.006		inactive: 0.0089
Cc1ccc(S(=O)(=O)NC(=S)NC2CCCCC2)cc1	inconclusive: 0.0107		inactive: 0.013
Cc1ccc(S(=O)(=O)N2CCCCC2)cc1NC(=S)NC(=O)c1ccco1	active: 0.0132	inconclusive: 0.0269	inconclusive: 0.0111
O=C(NC(=S)NNC(=O)c1cnccn1)c1ccc(Cl)cc1	inconclusive: 0.0076	inconclusive: 0.0237	inconclusive: 0.0136
Cc1scc(-c2n[nH]c(=S)n2C(C)c2ccccc2)c1C (stereo not drawn)	active: 0.0112	inconclusive: 0.0267	inconclusive: 0.0101
CCC(=O)c1cc(F)c(N2CCN(C(=O)Cc3ccccc3)CC2)cc1C	inactive: 0.00737		inconclusive: 0.011
O=C1CCC(=O)N1c1ccc(NC2CCN(Cc3ccccc3)CC2)c([N+](=O)[O-])c1	inconclusive: 0.00836	inactive: 0.0235	inactive: 0.0106
O=C(CSc1ncnc2c(-c3ccc(Cl)cc3)nsc12)c1ccccc1	active: 0.0182	inconclusive: 0.0294	active: 0.0105
CCOc1ccccc1NC(=O)CSc1nnnn1Cc1ccccc1	inactive: 0.00724	inconclusive: 0.0156	inactive: 0.0094
ON/C=N/C(=S)Nc1ncc(C(F)(F)F)cc1Cl	active: 0.0481		inconclusive: 0.031
CCCCCCCCC(=O)NNC(=O)c1c(O)c2ccccc2n(CCC)c1=O	active: 0.0154		inconclusive: 0.0116
COCCNC(=S)NC(=O)c1ccc(C(C)(C)C)cc1	inconclusive: 0.00905	inactive: 0.0192	inactive: 0.0106
O=C(Nc1nnc(-c2ccc(Cl)cc2)o1)Nc1ccccc1Cl	inconclusive: 0.0107	inactive: 0.0263	inconclusive: 0.0114
Cn1c(O)c(N=NC(=S)Nc2ccccc2F)c2cc(S(=O)(=O)N3CCOCC3)ccc21	inconclusive: 0.0205		inconclusive: 0.0158
CN(Cc1ccccc1)C(=O)CSc1nc2ccccc2c(=O)n1Cc1ccco1	active: 0.00575		inconclusive: 0.00906
CCCC1=NN2C(=N)/C(=C\c3cc(C)n(-c4cc(C)cc(C)c4)c3C)C(=O)N=C2S1	inconclusive: 0.0195		inactive: 0.0131
CCCCCCCCNC(=O)C(CCC(=O)OCc1ccccc1)NC(C)=O (stereo not drawn)	inconclusive: 0.00667		inactive: 0.00992
C=CCn1c(SCCCc2ccccc2)nc2c1c(=O)[nH]c(=O)n2C	inconclusive: 0.00651		inactive: 0.0104
O=C(NC(=S)Nc1cccnc1Cl)c1ccco1	inconclusive: 0.0198		inconclusive: 0.0179
CCOC(=O)C1=C(Cc2ccc(OC)cc2)C(=O)c2ccccc2C1=O	active: 0.0113		inconclusive: 0.0111
CCOc1ccc(CC(=N)C2=C(O)CC(C)(C)CC2=O)cc1OCC	inactive: 0.00636		inconclusive: 0.00865
CCN(CC)CCN1C(=O)C(=O)/C(=C(/O)c2ccc(OC)cc2)C1c1ccco1 (stereo not drawn)	inconclusive: 0.00851		inconclusive: 0.0124
Oc1cccc2ccc(/C=C/c3cccs3)nc12	active: 0.0129	inconclusive: 0.0259	inactive: 0.0111
C/C(=N\NC(=O)c1ccccc1O)C1C(=O)c2ccccc2C1=O	inconclusive: 0.00532		inactive: 0.00896
O=C(Nc1cccc(Cl)c1)N1CCN(Cc2ccccc2)CC1	inactive: 0.00723		inconclusive: 0.0109
